Experimental data reported in the supplement of paper PMC11417369.
Some of the results follow.

System: PfAP2-HC AP2 domain (GST-tagged)
Test: gcPBM binding intensity (ln(normalized median fluorescence intensity)); higher = stronger DNA binding
Outline: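 The binding buffer was 1× PBS containing 1% milk, 0.2 mg/ml BSA, 0.5% salmon testes DNA and 0.03% Triton X-100. In it, GST-tagged P. falciparum DNA-binding domains expressed in E. coli were applied for 1 h to an Agilent 4 × 180k array of primer-extended double-stranded 36-bp intergenic genomic probes plus negative controls. Binding intensity, read with Alexa488 anti-GST antibody and a 488 nm scan, is the highest Masliner-normalised natural-log median intensity across replicate spots of either probe orientation.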

Sequence | gcPBM binding intensity (ln)
AAATATATTATATGTACACACAAAATTAAGGGATAT [CACACA_site1375] | 10.1
ATATTTTTTAATTTTACACACCATATAAAATAATTC [CACACA_site7339] | 9.67
ATCAATACTTTTTTGGGTACATAAATATATATATAT [XGTACX_site8436] | 9.63
AACTAATTCATGTTATATTAGATAAAAAAAAAAAAA [TGCATGCA_negctrl_site340] | 9.31
AAAATAATAAATAAATGTACATATATATATATATAT [XGTACX_site3078] | 10.2
TTTTTTTTGTTCATTGTGCACATTGCTTGCATGGAA [GTGCAC_site9693] | 9.61
ATAAGATTATACAATTGTACGTTGTTCAAGATAAGG [XGTACX_site191] | 9.74
GTGTTTGAAAATAAAGCATGCAAATATATTTGAAAT [TGCATGCA_site386] | 9.77
TGGTTTCAATAATTAATAAAATATATTATTGTGAAA [CACACA_negctrl_site442] | 9.26
TCTAACATATAATATTCACACACATATATATATTAT [CACACA_site8236] | 10.1
ATAATATATTTATAATGTACAAACCATTTGTATTAA [XGTACX_site4370] | 9.47
ATTATTATTATATTTTGTACATATGTAACAATATAT [XGTACX_site5780] | 9.81
CATTAAAATTGAGAGATGCACTTTTTAAGACCTTGT | 9.43
AAAAAAAATTAAATAAATAAATATACACATATATAT [GTGCAC_negctrl_site394] | 9.65
AAAACATTGTTTATGTGTACATAATTATATTTACAA [XGTACX_site6926] | 9.68
TAAATATGTGTATGTAGTACATAGTGTTTTTTTTTT [XGTACX_site3748] | 9.72
TGCATATTACTTTTTCACATAAAAATGATCCGATTA [GTGCAC_negctrl_site526] | 9.4
ATATTATGAATTGTCACACATATATTTAAAAATGTA [CACACA_site4852] | 9.5
AAAATATAAAAATGAAGTACAAAAAAAAAAAAAAAA [XGTACX_site8132] | 9.47

Sequence | gcPBM binding intensity (ln)
GTTATACACATCAACACACACATACAACGTGGTGTA [CACACA_site6677] | 10
AAAAAATGACTTAATATGAGCATATATTATGTTGTT [CACACA_negctrl_site1609] | 9.65
TTTTAACAAAAAAAAAGAAAAGAAAAGAAAATAATA [XGTACX_negctrl_site530] | 9.39
TTAACTCTGGAGAAAAGTACATAGTATCTGGTAACA [XGTACX_site4941] | 9.49
CAAAAAACAACAGATCGTACAAAATATTATATATAT [XGTACX_site2285] | 9.91
TATCCATATTTGTTCACACACACACCGATTTATATA [CACACA_site5888] | 10.2
TTGAAAAATGAGCACACACACAAATACATACATATT [CACACA_site3231] | 10.4
ATTATAAAAATATATTGTACACAAAAATGTTTATAT [XGTACX_site5066] | 9.63
TGAGATATAAAAATATGTACTTATGTATAAATATTT [XGTACX_site7746] | 9.61
CCAAATTTATTTTGTAGTACTCCGTATAGATCAACA [XGTACX_site7945] | 9.47
AAGTTTTTTTTTAACACACACATAATAAAATAAATA [CACACA_site446] | 10.1
TATATTTATATCCACTTCGTTTAACGCACAGATATA [CACACA_negctrl_site954] | 9.72
AAATTATATATATTACGTACATAGAACTTTACAGAA [XGTACX_site6646] | 9.66
ATGTTACACCGACACACACACATAAAAAAACAAAAA [CACACA_site5750] | 10.2
TCTTATTCAAACGTAAAACGAAGAAGAAAAAAAAAA [CACACA_negctrl_site149] | 9.44
ATATACTATATTTTAACACACAAAAAAAAAAAATAT [CACACA_site1091] | 9.79
AAGAAATAAAAAGAATGTACACAATATGTATTATAA [XGTACX_site4733] | 9.79
TGGACAATTGTTTATTGTACTTAAATTTTATGTTCT [XGTACX_site8974] | 9.58
ATAAATAAATAAATAAATAAATATACATATACATAT [CACACA_negctrl_site205] | 9.71

Sequence | gcPBM binding intensity (ln)
AAATTTATATATAGTTGTACAAAAATATGTTTCGTA [XGTACX_site4801] | 9.81
TTATTTTATCACACATGTACATATGTTAATTTTTTT [XGTACX_site5598] | 9.8
TGAATAATCAATAGTACACACATATAAATATATATA [CACACA_site2813] | 9.91
AAAATAAAAAGAAATAAATTAACAGTAAGGAAAAAA [CACACA_negctrl_site1105] | 9.71
CCTTTTTCTAATGGATGTACTTATTATATACATTAT [XGTACX_site281] | 9.75
AAGAAAAGTAAATATGCATGTAGGGTAGGTTATTTT [TGCATGCA_site46] | 9.87
TATATATATCTGTATACACACATATGTATGTTATGT [CACACA_site6090] | 10.3
ATATTTTTTCTGAACGGTACAGAATTTTTCAAGATT [XGTACX_site484] | 9.58
TAATTTATTAATAATTGTACAGATATTATACTTAAA [XGTACX_site8947] | 9.32
TAATTCATCCTATGCACACACAATACCAAAATGTGC [CACACA_site4269] | 9.96
TTTTGAATTAAACAAGCATGCTTTATTTACTTCTTA [TGCATGCA_site289] | 9.7
TGCTCATGAGGTCAGAGTACAAAATAGTAAATGTAT [XGTACX_site2973] | 9.56
TTTATTTTTATTTTTGTGCACGGGATTAAATAAAAG [GTGCAC_site9842] | 9.31
TTTTTTTTTTTTTTTCTTTTTTATTCTCACAAAAAA [CACACA_negctrl_site1790] | 8.76
AACATTTATATTTAAGTGCAGATGCTGTAATTTAGA | 9.47
TTTTTATAACAAAGTATTTAAATAATTTATACTAAT [TGCATGCA_negctrl_site104] | 9.35
GAACAAATTACAAGTTGTACTTTATGTAAATTATTA [XGTACX_site5304] | 9.55
ATGCGTTCATACATACATACATACATACAATTTGTA [TGCATGCA_negctrl_site50] | 9.79
